# Reference: the supplement of paper PMC8728848
# Some of the results follow.
# B1: Jacalin (Artocarpus integrifolia) (protein)
# chain: MAYSSLLSLSVLALLFSISSADTRKWFLANGINQNPIGIIEAAVGVSEDLLNLNGMEAKNDEQSGISQTVIVGPWGAKVSTSSNGKAFDDGAFTGIREINLSYNKETAIGDFQVVYDLNGSPYVGQNHKSFITGFTPVKISLDFPSEYIMEVSGYTGNVSGYVVVRSLTFKTNKKTYGPYGVTSGTPFNLPIENGLIVGFKGSIGYWLDYFSMYLSL
# Legend:
# Test in all cases: glycan array binding signal (z-score within array); higher = stronger binding
# Details in all cases: glycan notation: IUPAC condensed, linker removed
# [1] = biological target: Fuc(a1-4)GlcNAc
# In short: (§1)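 The Consortium for Functional Glycomics database supplied 3228 glycan arrays, of which those lacking an available protein sequence were dropped. The binding signal, a within-array Z-score, was averaged across arrays of the same protein sequence and across linkers. Negative scores can be read as non-binding.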
# [2] = biological target: Fuc(b1-3)GlcNAc
# In short: as §1
# [3] = biological target: Gal(a1-2)Gal
# In short: as §1
# [4] = biological target: Gal(a1-3)Gal
# In short: as §1
# [5] = biological target: Gal(a1-3)Gal(b1-3)GlcNAc
# In short: as §1
# [6] = biological target: Gal(a1-3)Gal(b1-3)GlcNAc(b1-2)Man
# In short: as §1
# [7] = biological target: Gal(a1-3)Gal(b1-3)GlcNAc(b1-2)Man(a1-3)[Gal(a1-3)Gal(b1-3)GlcNAc(b1-2)Man(a1-6)]Man(b1-4)GlcNAc(b1-4)GlcNAc
# In short: as §1
# [8] = biological target: Gal(a1-3)Gal(b1-3)GlcNAc(b1-3)GalNAc
# In short: as §1
# [9] = biological target: Gal(a1-3)Gal(b1-3)GlcNAc(b1-6)GalNAc
# In short: as §1
# [10] = biological target: Gal(a1-3)Gal(b1-3)[Fuc(a1-4)]GlcNAc(b1-2)Man(a1-3)[Gal(a1-3)Gal(b1-3)[Fuc(a1-4)]GlcNAc(b1-2)Man(a1-6)]Man(b1-4)GlcNAc(b1-4)GlcNAc
# In short: as §1
# [11] = biological target: Gal(a1-3)Gal(b1-4)Glc
# In short: as §1
# [12] = biological target: Gal(a1-3)Gal(b1-4)GlcNAc
# In short: as §1
# [13] = biological target: Gal(a1-3)Gal(b1-4)GlcNAc(b1-2)Man
# In short: as §1
# [14] = biological target: Gal(a1-3)Gal(b1-4)GlcNAc(b1-2)Man(a1-3)[Gal(a1-3)Gal(b1-4)GlcNAc(b1-2)Man(a1-6)]Man(b1-4)GlcNAc(b1-4)GlcNAc
# In short: as §1
# [15] = biological target: Gal(a1-3)Gal(b1-4)GlcNAc(b1-3)GalNAc
# In short: as §1
# [16] = biological target: Gal(a1-3)Gal(b1-4)GlcNAc(b1-6)GalNAc
# In short: as §1
# [17] = biological target: Gal(a1-3)Gal(b1-4)[Fuc(a1-3)]GlcNAc
# In short: as §1
# [18] = biological target: Gal(a1-3)Gal(b1-4)[Fuc(a1-3)]GlcNAc(b1-2)Man(a1-3)[Gal(a1-3)Gal(b1-4)[Fuc(a1-3)]GlcNAc(b1-2)Man(a1-6)]Man(b1-4)GlcNAc(b1-4)GlcNAc
# In short: as §1
# [19] = biological target: Gal(a1-3)GalNAc
# In short: as §1
# [20] = biological target: Gal(a1-3)[Gal(a1-4)]Gal(b1-4)GlcNAc
# In short: as §1
# [21] = biological target: Gal(a1-4)Gal(b1-3)GlcNAc(b1-2)Man(a1-3)[Gal(a1-4)Gal(b1-3)GlcNAc(b1-2)Man(a1-6)]Man(b1-4)GlcNAc(b1-4)GlcNAc
# In short: as §1
# [22] = biological target: Gal(a1-4)Gal(b1-4)Glc
# In short: as §1
# [23] = biological target: Gal(a1-4)Gal(b1-4)GlcNAc
# In short: as §1
# [24] = biological target: Gal(a1-4)Gal(b1-4)GlcNAc(b1-2)Man(a1-3)[Gal(a1-4)Gal(b1-4)GlcNAc(b1-2)Man(a1-6)]Man(b1-4)GlcNAc(b1-4)GlcNAc
# In short: as §1
# [25] = biological target: Gal(a1-4)Gal(b1-4)GlcNAc(b1-3)Gal(b1-4)Glc
# In short: as §1
# [26] = biological target: Gal(a1-4)GlcNAc
# In short: as §1
# [27] = biological target: Gal(a1-6)Glc
# In short: as §1
# [28] = biological target: Gal(b1-2)Gal
# In short: as §1
# [29] = biological target: Gal(b1-3)Gal
# In short: as §1
# [30] = biological target: Gal(b1-3)Gal(b1-4)GlcNAc
# In short: as §1
# [31] = biological target: Gal(b1-3)GalNAc
# In short: as §1
# [32] = biological target: Gal(b1-3)GalNAc(a1-3)[Fuc(a1-2)]Gal(b1-4)Glc
# In short: as §1
# [33] = biological target: Gal(b1-3)GalNAc(a1-3)[Fuc(a1-2)]Gal(b1-4)GlcNAc
# In short: as §1
# [34] = biological target: Gal(b1-3)GalNAc(b1-3)Gal
# In short: as §1
# [35] = biological target: Gal(b1-3)GalNAc(b1-3)Gal(a1-4)Gal(b1-4)Glc
# In short: as §1
# [36] = biological target: Gal(b1-3)GalNAc(b1-4)Gal(b1-4)Glc
# In short: as §1
# [37] = biological target: Gal(b1-3)GalNAc(b1-4)[Neu5Ac(a2-3)]Gal(b1-4)Glc
# In short: as §1
# [38] = biological target: Gal(b1-3)GlcNAc
# In short: as §1
binder,measurement,setting,value
B1,glycan array binding signal (z-score),[1],-0.266
same,glycan array binding signal (z-score),[2],-0.269
same,glycan array binding signal (z-score),[3],-0.265
same,glycan array binding signal (z-score),[4],0.185
same,glycan array binding signal (z-score),[5],-0.243
same,glycan array binding signal (z-score),[6],-0.256
same,glycan array binding signal (z-score),[7],-0.19
same,glycan array binding signal (z-score),[8],0.712
same,glycan array binding signal (z-score),[9],-0.259
same,glycan array binding signal (z-score),[10],-0.167
same,glycan array binding signal (z-score),[11],-0.258
same,glycan array binding signal (z-score),[12],-0.275
same,glycan array binding signal (z-score),[13],-0.257
same,glycan array binding signal (z-score),[14],-0.215
same,glycan array binding signal (z-score),[15],0.893
same,glycan array binding signal (z-score),[16],-0.274
same,glycan array binding signal (z-score),[17],-0.268
same,glycan array binding signal (z-score),[18],-0.275
same,glycan array binding signal (z-score),[19],0.322
same,glycan array binding signal (z-score),[20],-0.247
same,glycan array binding signal (z-score),[21],-0.229
same,glycan array binding signal (z-score),[22],-0.231
same,glycan array binding signal (z-score),[23],-0.218
same,glycan array binding signal (z-score),[24],-0.231
same,glycan array binding signal (z-score),[25],-0.262
same,glycan array binding signal (z-score),[26],0.782
same,glycan array binding signal (z-score),[27],0.126
same,glycan array binding signal (z-score),[28],-0.257
same,glycan array binding signal (z-score),[29],-0.001
same,glycan array binding signal (z-score),[30],-0.275
same,glycan array binding signal (z-score),[31],0.936
same,glycan array binding signal (z-score),[32],-0.282
same,glycan array binding signal (z-score),[33],-0.259
same,glycan array binding signal (z-score),[34],-0.254
same,glycan array binding signal (z-score),[35],0.172
same,glycan array binding signal (z-score),[36],-0.255
same,glycan array binding signal (z-score),[37],-0.277
same,glycan array binding signal (z-score),[38],-0.269
